Measured values from PMC9911399, “Two distinct binding modes provide the RNA-binding protein RbFox with extraordinary sequence specificity”.
Substitutions are numbered along the chain they refer to; changes in the protein carry UniProt numbers. The list shows a part of the results.

T1: RBFOX1 RRM (Homo sapiens, UniProt Q9NWB1 109-208)
T1 sequence: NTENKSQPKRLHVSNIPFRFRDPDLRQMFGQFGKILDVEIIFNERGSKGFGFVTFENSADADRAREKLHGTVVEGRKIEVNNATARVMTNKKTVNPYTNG

B1: AAGCAAC (DNA:RNA)
RNA: GGGAGACCGGAAUUCAGAUUGUCCAAGCAACUUAAAUCCCGUCGUAGCCACCA
DNA 1: CAATCTGAATTCCGGTCTCCC
DNA 2: TGGTGGCTACGACGGGATT
B2: AGUGCUU (DNA:RNA)
RNA: B1 RNA with A26G, G27U, C28G, A29C, A30U, C31U
DNA 1: CAATCTGAATTCCGGTCTCCC
DNA 2: TGGTGGCTACGACGGGATT
B3: UCAAACC (DNA:RNA)
RNA: B1 RNA with A25U, A26C, G27A, C28A, A30C
DNA 1: CAATCTGAATTCCGGTCTCCC
DNA 2: TGGTGGCTACGACGGGATT
B4: CUUACCA (DNA:RNA)
RNA: GGGAGACCGGAAUUCAGAUUGUCCCUUACCAUUAAAUCCCGUCGUAGCCACCA
DNA 1: CAATCTGAATTCCGGTCTCCC
DNA 2: TGGTGGCTACGACGGGATT
B5: UAACAGG (DNA:RNA)
RNA: B1 RNA with A25U, G27A, A30G, C31G
DNA 1: CAATCTGAATTCCGGTCTCCC
DNA 2: TGGTGGCTACGACGGGATT
B6: GCUCUAU (DNA:RNA)
RNA: B1 RNA with A25G, A26C, G27U, A29U, C31U
DNA 1: CAATCTGAATTCCGGTCTCCC
DNA 2: TGGTGGCTACGACGGGATT
B7: AUAGUAG (DNA:RNA)
RNA: B1 RNA with A26U, G27A, C28G, A29U, C31G
DNA 1: CAATCTGAATTCCGGTCTCCC
DNA 2: TGGTGGCTACGACGGGATT
B8: CGACAGG (DNA:RNA)
RNA: B1 RNA with A25C, A26G, G27A, A30G, C31G
DNA 1: CAATCTGAATTCCGGTCTCCC
DNA 2: TGGTGGCTACGACGGGATT
B9: CAAACCU (DNA:RNA)
RNA: B4 RNA with U26A, U27A, A31U
DNA 1: CAATCTGAATTCCGGTCTCCC
DNA 2: TGGTGGCTACGACGGGATT
B10: AGCGAAA (DNA:RNA)
RNA: B1 RNA with A26G, G27C, C28G, C31A
DNA 1: CAATCTGAATTCCGGTCTCCC
DNA 2: TGGTGGCTACGACGGGATT
B11: UAGACAA (DNA:RNA)
RNA: B1 RNA with A25U, C28A, A29C, C31A
DNA 1: CAATCTGAATTCCGGTCTCCC
DNA 2: TGGTGGCTACGACGGGATT
B12: ACACCGU (DNA:RNA)
RNA: B1 RNA with A26C, G27A, A29C, A30G, C31U
DNA 1: CAATCTGAATTCCGGTCTCCC
DNA 2: TGGTGGCTACGACGGGATT
B13: AUCGGUC (DNA:RNA)
RNA: B1 RNA with A26U, G27C, C28G, A29G, A30U
DNA 1: CAATCTGAATTCCGGTCTCCC
DNA 2: TGGTGGCTACGACGGGATT
B14: CUCAGUU (DNA:RNA)
RNA: B4 RNA with U27C, C29G, C30U, A31U
DNA 1: CAATCTGAATTCCGGTCTCCC
DNA 2: TGGTGGCTACGACGGGATT
B15: GAUAAUU (DNA:RNA)
RNA: B1 RNA with A25G, G27U, C28A, A30U, C31U
DNA 1: CAATCTGAATTCCGGTCTCCC
DNA 2: TGGTGGCTACGACGGGATT
B16: UCCGUAU (DNA:RNA)
RNA: B1 RNA with A25U, A26C, G27C, C28G, A29U, C31U
DNA 1: CAATCTGAATTCCGGTCTCCC
DNA 2: TGGTGGCTACGACGGGATT
B17: GAGUUCC (DNA:RNA)
RNA: B1 RNA with A25G, C28U, A29U, A30C
DNA 1: CAATCTGAATTCCGGTCTCCC
DNA 2: TGGTGGCTACGACGGGATT
B18: CAAUCUU (DNA:RNA)
RNA: B4 RNA with U26A, U27A, A28U, C30U, A31U
DNA 1: CAATCTGAATTCCGGTCTCCC
DNA 2: TGGTGGCTACGACGGGATT
B19: GGUGUUG (DNA:RNA)
RNA: B4 RNA with C25G, U26G, A28G, C29U, C30U, A31G
DNA 1: CAATCTGAATTCCGGTCTCCC
DNA 2: TGGTGGCTACGACGGGATT
B20: UUGGGGG (DNA:RNA)
RNA: B1 RNA with A25U, A26U, C28G, A29G, A30G, C31G
DNA 1: CAATCTGAATTCCGGTCTCCC
DNA 2: TGGTGGCTACGACGGGATT
B21: CGGAGUU (DNA:RNA)
RNA: B4 RNA with U26G, U27G, C29G, C30U, A31U
DNA 1: CAATCTGAATTCCGGTCTCCC
DNA 2: TGGTGGCTACGACGGGATT
B22: AAUGCAU (DNA:RNA)
RNA: B1 RNA with G27U, C28G, A29C, C31U
DNA 1: CAATCTGAATTCCGGTCTCCC
DNA 2: TGGTGGCTACGACGGGATT
B23: ACAAAUG (DNA:RNA)
RNA: B1 RNA with A26C, G27A, C28A, A30U, C31G
DNA 1: CAATCTGAATTCCGGTCTCCC
DNA 2: TGGTGGCTACGACGGGATT
B24: UAGCAUC (DNA:RNA)
RNA: B1 RNA with A25U, A30U
DNA 1: CAATCTGAATTCCGGTCTCCC
DNA 2: TGGTGGCTACGACGGGATT
B25: GGAUUCA (DNA:RNA)
RNA: B4 RNA with C25G, U26G, U27A, A28U, C29U
DNA 1: CAATCTGAATTCCGGTCTCCC
DNA 2: TGGTGGCTACGACGGGATT
B26: GUCAGGU (DNA:RNA)
RNA: B4 RNA with C25G, U27C, C29G, C30G, A31U
DNA 1: CAATCTGAATTCCGGTCTCCC
DNA 2: TGGTGGCTACGACGGGATT
B27: UGGUUUG (DNA:RNA)
RNA: B1 RNA with A25U, A26G, C28U, A29U, A30U, C31G
DNA 1: CAATCTGAATTCCGGTCTCCC
DNA 2: TGGTGGCTACGACGGGATT
B28: AGCCUAG (DNA:RNA)
RNA: B1 RNA with A26G, G27C, A29U, C31G
DNA 1: CAATCTGAATTCCGGTCTCCC
DNA 2: TGGTGGCTACGACGGGATT
B29: CAGUUGC (DNA:RNA)
RNA: B1 RNA with A25C, C28U, A29U, A30G
DNA 1: CAATCTGAATTCCGGTCTCCC
DNA 2: TGGTGGCTACGACGGGATT
B30: UCCAAAA (DNA:RNA)
RNA: B1 RNA with A25U, A26C, G27C, C28A, C31A
DNA 1: CAATCTGAATTCCGGTCTCCC
DNA 2: TGGTGGCTACGACGGGATT
B31: UUUUGUG (DNA:RNA)
RNA: B4 RNA with C25U, A28U, C29G, C30U, A31G
DNA 1: CAATCTGAATTCCGGTCTCCC
DNA 2: TGGTGGCTACGACGGGATT

Each binder was assayed against T1, RBFOX1 RRM (assay: EMSA; HiTS-Eq, 1 nM pool, 10 min; buffer printed only for the single-RNA assays: 10 mM Tris pH 7.5, 150 mM NaCl, 3.4 mM EDTA, 0.001% NP-40, 30 C). Settings: tags: His6 N-terminal (pET28a); label: 5' 32P.
Summary of the method: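 Relative association constants, normalised to the cognate motif, were derived by comparing read counts of each RNA species with those of the control reaction. The RNA sequenced was the free fraction, separated by 8% native PAGE after a 10 min equilibration in 50 µL of 1 nM 5′-radiolabelled RNA (7 randomized nucleotides) with increasing concentrations of purified wild-type or mutant RbFox RRM.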

Binder	binding signal
B1	0.00697 KA relative to UGCAUGU
B2	0.0147 KA relative to UGCAUGU
B3	0.00136 KA relative to UGCAUGU
B4	0.00134 KA relative to UGCAUGU
B5	0.00534 KA relative to UGCAUGU
B6	0.00678 KA relative to UGCAUGU
B7	0.00556 KA relative to UGCAUGU
B8	0.0123 KA relative to UGCAUGU
B9	0.000969 KA relative to UGCAUGU
B10	0.0048 KA relative to UGCAUGU
B11	0.00292 KA relative to UGCAUGU
B12	0.00175 KA relative to UGCAUGU
B13	0.00899 KA relative to UGCAUGU
B14	0.0127 KA relative to UGCAUGU
B15	0.00433 KA relative to UGCAUGU
B16	0.00686 KA relative to UGCAUGU

Binder	binding signal
B17	0.0216 KA relative to UGCAUGU
B18	0.00142 KA relative to UGCAUGU
B19	0.0175 KA relative to UGCAUGU
B20	0.0118 KA relative to UGCAUGU
B21	0.0257 KA relative to UGCAUGU
B22	0.0126 KA relative to UGCAUGU
B23	0.00463 KA relative to UGCAUGU
B24	0.0216 KA relative to UGCAUGU
B25	0.0122 KA relative to UGCAUGU
B26	0.00934 KA relative to UGCAUGU
B27	0.0372 KA relative to UGCAUGU
B28	0.00816 KA relative to UGCAUGU
B29	0.012 KA relative to UGCAUGU
B30	0.0013 KA relative to UGCAUGU
B31	0.0302 KA relative to UGCAUGU
